# Hit rate of the full screen: of about 310,000 compounds, about 14,000 (4.5%) showed an effect of 50% or more. Effects have a minus sign here. The list shows a part of the results.
# Target: human ether-à-go-go-related gene (hERG) potassium channel (human, UniProt Q12809)
# Assay: primary screen, population patch clamp on CHO cells stably expressing hERG
# 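Further: peak tail current of the secondary pulse compared with the same well before compound.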
# Sequence of human ether-à-go-go-related gene (hERG) potassium channel (Q12809 whole entry, looked up): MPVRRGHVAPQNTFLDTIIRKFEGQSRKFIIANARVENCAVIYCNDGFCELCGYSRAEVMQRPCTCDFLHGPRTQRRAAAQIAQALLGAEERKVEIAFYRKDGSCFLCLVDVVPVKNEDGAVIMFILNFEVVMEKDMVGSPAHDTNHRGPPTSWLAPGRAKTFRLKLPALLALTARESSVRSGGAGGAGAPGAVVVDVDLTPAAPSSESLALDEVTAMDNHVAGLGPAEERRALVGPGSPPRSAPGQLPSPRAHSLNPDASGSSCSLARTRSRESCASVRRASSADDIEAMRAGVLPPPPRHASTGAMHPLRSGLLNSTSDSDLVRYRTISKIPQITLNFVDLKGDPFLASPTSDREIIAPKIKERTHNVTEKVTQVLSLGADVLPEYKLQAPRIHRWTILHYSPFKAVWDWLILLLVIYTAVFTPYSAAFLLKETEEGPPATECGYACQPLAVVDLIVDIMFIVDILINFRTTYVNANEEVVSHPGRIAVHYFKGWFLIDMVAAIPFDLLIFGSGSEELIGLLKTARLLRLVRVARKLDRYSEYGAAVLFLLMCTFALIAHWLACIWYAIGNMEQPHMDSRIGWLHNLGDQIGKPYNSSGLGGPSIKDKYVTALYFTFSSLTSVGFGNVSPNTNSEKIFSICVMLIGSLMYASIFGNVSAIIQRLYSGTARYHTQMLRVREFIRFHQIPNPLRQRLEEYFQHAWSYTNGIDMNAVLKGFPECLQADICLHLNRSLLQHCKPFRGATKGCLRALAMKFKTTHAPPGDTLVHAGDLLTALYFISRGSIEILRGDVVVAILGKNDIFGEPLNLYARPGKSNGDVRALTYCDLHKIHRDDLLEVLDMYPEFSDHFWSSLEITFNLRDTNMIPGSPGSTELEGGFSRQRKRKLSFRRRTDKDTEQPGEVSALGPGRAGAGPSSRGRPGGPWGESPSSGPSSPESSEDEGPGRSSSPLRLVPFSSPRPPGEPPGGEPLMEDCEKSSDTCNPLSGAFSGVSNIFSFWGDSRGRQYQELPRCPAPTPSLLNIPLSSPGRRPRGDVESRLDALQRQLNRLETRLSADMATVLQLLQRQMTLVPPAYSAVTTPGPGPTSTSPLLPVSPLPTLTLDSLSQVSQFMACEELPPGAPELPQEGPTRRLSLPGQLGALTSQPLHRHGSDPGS
row,Structure (SMILES),"hERG current change (%, negative = inhibition) at 10uM"
1,O=C(c1cccc(F)c1)N1CCN(c2cccc(C(F)(F)F)c2)CC1,-18.7%
2,O=C(NC(=S)NC1CCCC1)c1ccccc1,3.8%
3,COc1cc(CO)cc(Br)c1OCC(=O)O,24.9%
4,FC(F)(F)C(Oc1nc(Nc2ccc(Cl)cc2)nc(N2CCOCC2)n1)C(F)(F)F,12.9%
5,CCOC(=O)N1CCN(c2ccc(Cl)c(Cl)c2)CC1,-11.1%
6,COc1ccccc1NC(=S)NCc1ccccc1,8.62%
7,O=C(NNC(=O)C1COc2ccccc2O1)c1cccc([N+](=O)[O-])c1 (stereo not shown),-7.35%
8,COc1ccccc1N(CC(=O)NCCSCc1ccccc1)S(C)(=O)=O,4.03%
9,O=[N+]([O-])c1ccc2c(c1)C(O)n1ncnc1S2 (stereo not shown),26.6%
10,O=[N+]([O-])c1cccc(-c2c(-c3ccccc3)ncc3cc(F)ccc23)c1,0.428%
11,Cc1n[nH]c(C)c1CCC(=O)N/N=C/C=C/c1ccccc1,-23.2%
12,COc1ccc2c(C=O)cn(C)c2c1,16.7%
13,CCN(CC)C(=O)CSc1nc2ccccc2c(=O)[nH]1,12.5%
14,COc1cccc(CC2(CO)CCCN(Cc3cc(F)ccc3-n3cccn3)C2)c1 (stereo not shown),-77.3%
15,Cc1ccccc1NS(=O)(=O)c1ccc(C(=O)NCC(C)(C)N2CCOCC2)cc1,-1.84%
16,C=C1CCC(N(O)c2cc(C)on2)C(=C)CCC2C1CC2(C)C (stereo not shown),8.82%
17,COc1ccc(CCNC(=O)Cn2nnc(-c3ccc(OC)c(OC)c3)n2)cc1OC,3.58%
18,COc1cc(CN2CCNC(=O)C2CC(=O)N(C)Cc2cccnc2)cc(OC)c1 (stereo not shown),12.7%
19,COc1ccc(N2CCN(c3nc(C)c(C)c(=O)[nH]3)CC2)cc1,9.18%
20,OC(COc1ccc(CN2CCCCO2)cc1)CN1CCCCC1 (stereo not shown),10.8%
21,O=C(NCc1ccco1)Nc1ccc([N+](=O)[O-])cc1,-9.2%
22,Cc1nc(C)c(CC(=O)N/N=C/c2ccc(O)cc2)c(=O)[nH]1,14.6%
23,CCOC(=O)CSc1nc(N(C)C)nc(N(C)C#N)n1,-10%

row,Structure (SMILES),"hERG current change (%, negative = inhibition) at 10uM"
1,COc1ccc2oc(C)c(NC(C)=O)c2c1,0.461%
2,CCN=C1SC(C(=O)Nc2cccc(C)c2)CC(=O)N1CC (stereo not shown),-15.1%
3,CCOP(=O)(OCC)c1cc(CC)ccc1O,5.51%
4,Cc1nnc(SCc2cc(=O)[nH]c(N3CCN(Cc4ccccc4)CC3)n2)s1,-18.2%
5,Cc1cccc(C)c1NC(=O)C1CCCN1S(=O)(=O)c1ccc(-c2ccc(=O)[nH]n2)s1 (stereo not shown),-68.2%
6,O=C(NC(=S)Nc1ccccc1N1CCCC1)c1cccc(F)c1,23%
7,CCOC(=O)/C=C/c1ccc(C(F)(F)F)cc1S(=O)(=O)NC(C)(C)C,-18.6%
8,O=C(NC1CCCCCC1)C1CCN(c2nc3ccccc3o2)CC1,-6.43%
9,COc1ccc(CCNC(=O)CSc2nc(N)c3c(C)c(C)oc3n2)cc1OC,1.46%
10,COc1cc(C(=O)Nc2ccc3nc(N4CCN(C)CC4)cc(C)c3c2)cc(OC)c1OC,-38.7%
11,Br.COc1ccc(OCC(=O)NN2Cc3ccccc3C2=N)cc1,-18.1%
12,CN(NC(=O)NN)c1ncc(C(F)(F)F)cc1Cl,-3.56%
13,COc1ccc(CCNC(=O)c2cnc(C)cn2)cc1,17.9%
14,COc1ccccc1NC(=O)N1CCN(CCc2ccccc2)CC1,-19%
15,COc1ccc(OC)c(Nc2nc(N)c([N+](=O)[O-])c(NC3CCCCC3)n2)c1,11.3%
16,COc1ccc(C2(c3ccc(O)cc3O)CC(c3ccccc3Cl)NC(=S)N2)cc1 (stereo not shown),-15%
17,CCN(C(=O)COC(=O)CNS(=O)(=O)c1ccc(SC)c([N+](=O)[O-])c1)C1CCCCC1,-33.6%
18,O=Cc1ccc(OCc2nnsc2Cl)cc1,6.42%
19,Cc1ccc(NC(=O)CSC2=Nc3ccccc3C3CC=NN23)c(C)c1 (stereo not shown),-6.34%
20,CCNC(=O)COC(=O)CCC(=O)c1cccs1,12.5%
21,Cc1cccc(N(CC(=O)NCCc2ccccc2)C(=O)CCC(=O)Nc2ccccn2)c1C,-18.3%
22,COC(=O)c1c(NC(=O)CN2C(=O)C(=O)N(CC(C)C)C2=O)sc2c1CCCCC2,6.61%
23,O=C(NCC1CCCO1)c1cn(Cc2ccccc2)nc1-c1ccc(Cl)cc1 (stereo not shown),-2.14%

row,Structure (SMILES),"hERG current change (%, negative = inhibition) at 10uM"
1,CCS(=O)(=O)N1Cc2ccccc2CC1C(=O)Nc1ccc(NC(C)=O)cc1 (stereo not shown),4.97%
2,Cc1cccc(/C=C2\CS/C(=C\c3cccc(C)c3)C2=O)c1,0.505%
3,CCOC(=O)N1CCN(c2c(NCCOC)c(=O)c2=O)CC1,6.96%
4,O=C(OCc1ccccc1)c1ccccc1,-1.94%
5,COCCNC(=O)C1CCN(C(=O)C2CC(=O)N(c3ccc(C)cc3)C2)CC1 (stereo not shown),7.39%
6,CCN(CC)c1ncnc2c1cnn2Cc1ccc(C)cc1,-8.2%
7,Cc1ccc(C)c(NC(=S)N2CCN(S(=O)(=O)c3ccccc3)CC2)c1,15.4%
8,O=C(c1ccco1)N1N=C(c2ccc3nccnc3c2)CC1c1ccccc1 (stereo not shown),-22.3%
9,CN1CCN(Cc2c(C(=O)N3CCc4ccccc4C3)nc3ccc(Cl)cn23)CC1,-51.8%
10,CCC(C)NC(=O)c1cnn2c1NC(c1ccc3c(c1)OCO3)CC2C(F)(F)F (stereo not shown),-1.5%
11,COc1ccc(C(=O)OCC(=O)NC2CC2)cc1S(=O)(=O)N(C)Cc1ccccc1,-53.8%
12,CC1CCc2sc(C(=O)N/N=C/C3CCCCC3)cc2C1 (stereo not shown),2.4%
13,COc1ccc(/C=C/C(=O)NCCCc2ccccc2)cc1,-46.8%
14,CCc1c(C)nc(N)n2c(SCC(=O)Nc3ccccc3)nnc12,12.5%
15,CCOc1ccc(C(Nc2ccc(C)cc2)P2(=O)OCCCO2)cc1 (stereo not shown),-13.3%
16,Cc1cccc(/C(N)=N/OC(=O)c2ccoc2C)c1,6.1%
17,CCOC(=O)C1CCN(S(=O)(=O)c2ccc(C(=O)OC)cc2)CC1,-1.7%
18,COc1ccc(NC(=O)C(=O)NCC2CCCN2S(=O)(=O)c2cc(C)ccc2C)cc1 (stereo not shown),-25.1%
19,COc1ccccc1C(=O)NNC(=O)C1CC=CCC1 (stereo not shown),18.7%
20,O=C(NCCCC1CCCC1)C1CCC(=O)N(Cc2cccc(F)c2)C1 (stereo not shown),-15.2%
21,Cn1c(SCC(=O)N/N=C/c2ccccn2)nnc1-c1ccccc1,2.72%
22,COC(=O)c1ccc(NC(=O)CNC(=O)C2CCCCC2)cc1,4.19%
23,Cn1c(=O)[nH]c(=O)c2c1nc(NCCCn1ccnc1)n2CCOc1ccccc1,-4.75%

row,Structure (SMILES),"hERG current change (%, negative = inhibition) at 10uM"
1,CC(C)(C)c1ccc(C(=O)N2CCN(c3ncccn3)CC2)cc1,-10.9%
2,COc1ccc(C)cc1NC(=O)NNC(=O)C(C)Oc1ccc([N+](=O)[O-])cc1 (stereo not shown),-25.5%
3,Cc1cc(=O)[nH]c(SCC(=O)NCc2ccco2)n1,17.9%
4,COc1ccc(/C=C(\C#N)C(=O)NCc2cccs2)cc1OC,-18.4%
5,Cn1c(=O)n(C)c2cc(NC(=O)CSc3ccccc3)ccc21,4.01%
6,CCC(NC(=O)c1ccc(C#CC2(O)CCCCC2)cc1)C(=O)O (stereo not shown),10.5%
7,Cc1ccc(Cn2nnc3c(=O)n(CC(=O)OCc4ccccc4)cnc32)cc1,-18.2%
8,CCc1ccccc1NC(=O)c1nnn(CC(=O)Nc2ccccc2C)c1N,2.13%
9,COc1ccccc1/C=C/C=N/NC(=O)Cc1cccs1,-5.65%
10,Cc1ccc(C(=O)N2CCCCC2)cc1S(=O)(=O)N1CCOCC1,22%
11,COc1ccc(C(=O)Nc2ccc(S(=O)(=O)N3CCCC3)cc2)cc1,-12.4%
12,COc1ccc(N2CCN(S(=O)(=O)c3cc4c(cc3C)N(C(C)=O)CCO4)CC2)cc1,-5.61%
13,O=C(O)c1cccc(NC(=S)NC(=O)c2ccc3ccccc3c2)c1,5.36%
14,O=C(COC(=O)CNC(=O)C1CCCCC1)Nc1ccc2ccccc2c1,-1.78%
15,CN(C)S(=O)(=O)c1cccc(NC(=S)N/N=C/c2cccc(O)c2)c1,11.9%
16,Nn1c(COc2ccccc2)nc2ccccc2c1=O,-5.35%
17,O=C(OCc1c(F)cccc1Cl)c1cccc(S(=O)(=O)N2CCOCC2)c1,-11.3%
18,CCOC(=O)c1[nH]c(C)c(C(=O)N2CCN(c3ccc(OC)cc3)CC2)c1C,-10.5%
19,CCOC(=O)[C@H]1[C@H]2COc3ccc(C)cc3[C@@H]2N2C(=O)c3ccccc3NC(=O)[C@@]12C,-26.1%
20,Cc1ccc(C(=O)C2C(=O)c3ccccc3C2=O)cc1,3.61%
21,COc1ccccc1/C=N/NC(=O)c1ccc(-c2ccccc2)cc1,1.05%
22,O=C(c1ccccc1)[C@H]1CC=CC[C@H]1C(=O)O,0.433%
